Out of some 350,000 compounds screened, about 9,900 (2.8%) were called active. Inconclusive means that the source gave no clear call. Such entries were picked first, then a sample of the others. Calls follow the shape of the dose curve; as a rule, active = well fitted activation curve with a large enough effect; inconclusive = small, poorly fitted or top-dose-only effect; inactive = no such curve, though single readings can be large or run the other way. Potencies of inconclusive entries are left out as doubtful fits.
Test: A quantitative high throughput screen for small molecules that induce DNA re-replication in MCF 10a normal breast cells. Also: nearly all actives have a fitted effect of over 50% in size. As to activity, positive = re-replication: % of control where 0% means no effect.
Conditions: MCF 10A DNA re-replication, Hoechst nuclear intensity, 48 h; activity, positive = re-replication: at 46.1 µM (top of the series)
Potency is read from the fitted curve at half-maximal effect; tags tell the direction and shape of the fitted curve.

Structure (SMILES) | Potency | activity, positive = re-replication
CCC1=C(OC(=O)N(CC)CC)N2C(=O)OC(=NCc3ccccc3)[C@]2(C)[C@H]2C1=CC[C@H]1C(=O)NC(=O)[C@H]12 | inconclusive [activator, partial curve, poor fit] | 
COc1ccc(OC)c(/C=C2\SC(=S)N(Cc3cccnc3)C2=O)c1 | active: 6.51 µM | 
COc1ccc2c(CC(=O)NC(Cc3ccc(Cl)cc3)C(=O)O)cc(=O)oc2c1C (configuration not stated) | inconclusive [activator, partial curve, poor fit] | 
S=C(N/N=C/c1cccc2ccccc12)Nc1cccc(Cl)c1 | inconclusive [activator, single point] | 
Cc1ccccc1NC(=O)c1ccc(CN2CCC(Cc3ccccc3)CC2)cc1 | inconclusive [activator, partial curve] | 
Cc1nc(SCC(=O)NC(C)(C#N)C2CC2)c2c(-c3cccs3)csc2n1 (configuration not stated) | inconclusive [activator, partial curve, poor fit] | 
O=C(NC1CCCC1)C(c1ccccn1)N(Cc1ccc(F)cc1)C(=O)c1csnn1 (configuration not stated) |  | inactive: 4.04%
N#CCc1ccc(NC(=O)/C=C/c2ccc([N+](=O)[O-])o2)cc1 | active: 16.4 µM | 
Cc1ccc(-c2cc(C(=O)Nc3ccc(S(=O)(=O)Nc4ncccn4)cc3)[nH]n2)c(O)c1C |  | inactive: 11.7%
COC(=O)c1ccc2nc3c(cc2c1)[C@@H]1CCN2C(=O)CCC[C@H](C3)[C@H]12 | inconclusive [activator, full curve] | 
CS(=O)(=O)c1ccc(CNC(=O)C2(C(F)(F)F)CC(CCCO)CCCO2)cc1 (configuration not stated) |  | inactive: -49.2%
CCCCOc1ccc(C(O)(CC)CCN2CCOCC2)cc1 (configuration not stated) |  | inactive: -8.11%
CCN(Cc1ccccc1)S(=O)(=O)c1ccc(C(=O)N(CCCN(C)C)c2nc3cc4c(cc3s2)OCCO4)cc1 | inconclusive [activator, partial curve, poor fit] | 
CC(=O)Nc1sc(/C(C#N)=C\c2cccc(Cl)c2)nc1-c1ccc(C)cc1 | inconclusive [activator, full curve, poor fit] | 
O=C1c2cccc(Cl)c2C(=O)N1c1ccccn1 | inconclusive [activator, single point] | 
Cc1ccc(Nc2nc(N)nc(CN3CCN(c4ccccc4F)CC3)n2)cc1 | inconclusive [activator, single point] | 
COc1ccc(NS(=O)(=O)c2ccc3oc4ccccc4c3c2)cn1 | inconclusive [activator, partial curve, poor fit] | 
